According to the supplement of paper PMC8728848:
The other results are listed elsewhere or left out.

Tests used:
Assay in all cases: glycan array binding signal (z-score within array); higher = stronger binding
Details in all cases: glycan notation: IUPAC condensed, linker removed; mutation: R82H, R255H
[1] = target: Fuc(a1-2)[Gal(a1-3)]Gal(b1-4)[Fuc(a1-3)]GlcNAc(b1-3)GalNAc
Method in brief: (§1)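 Columns mapping to the same glycan were averaged after glycan names were converted to IUPAC-condensed notation. The data come from 3228 arrays in the Consortium for Functional Glycomics database, limited to those with an available protein sequence. Binding is reported as a within-array Z-score averaged across arrays of one protein sequence and across linkers.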

[2] = target: Fuc(a1-2)[Gal(a1-4)]Gal(b1-4)GlcNAc
Method in brief: as §1

[3] = target: Fuc(a1-2)[GalNAc(a1-3)]Gal
Method in brief: as §1

[4] = target: Fuc(a1-2)[GalNAc(a1-3)]Gal(b1-3)GalNAc(a1-3)[Fuc(a1-2)]Gal(b1-4)GlcNAc
Method in brief: as §1

[5] = target: Fuc(a1-2)[GalNAc(a1-3)]Gal(b1-3)GalNAc(b1-3)Gal(a1-4)Gal(b1-4)Glc
Method in brief: as §1

[6] = target: Fuc(a1-2)[GalNAc(a1-3)]Gal(b1-3)GlcNAc
Method in brief: as §1

[7] = target: Fuc(a1-2)[GalNAc(a1-3)]Gal(b1-3)GlcNAc(b1-2)Man(a1-3)[Fuc(a1-2)[GalNAc(a1-3)]Gal(b1-3)GlcNAc(b1-2)Man(a1-6)]Man(b1-4)GlcNAc(b1-4)GlcNAc
Method in brief: as §1

[8] = target: Fuc(a1-2)[GalNAc(a1-3)]Gal(b1-3)GlcNAc(b1-2)Man(a1-3)[Fuc(a1-2)[GalNAc(a1-3)]Gal(b1-3)GlcNAc(b1-2)Man(a1-6)]Man(b1-4)GlcNAc(b1-4)[Fuc(a1-6)]GlcNAc
Method in brief: as §1

[9] = target: Fuc(a1-2)[GalNAc(a1-3)]Gal(b1-3)GlcNAc(b1-3)GalNAc
Method in brief: as §1

[10] = target: Fuc(a1-2)[GalNAc(a1-3)]Gal(b1-3)GlcNAc(b1-6)GalNAc
Method in brief: as §1

[11] = target: Fuc(a1-2)[GalNAc(a1-3)]Gal(b1-4)Glc
Method in brief: as §1

[12] = target: Fuc(a1-2)[GalNAc(a1-3)]Gal(b1-4)GlcNAc
Method in brief: as §1

[13] = target: Fuc(a1-2)[GalNAc(a1-3)]Gal(b1-4)GlcNAc(b1-2)Man
Method in brief: as §1

[14] = target: Fuc(a1-2)[GalNAc(a1-3)]Gal(b1-4)GlcNAc(b1-2)Man(a1-3)[Fuc(a1-2)[GalNAc(a1-3)]Gal(b1-4)GlcNAc(b1-2)Man(a1-6)]Man(b1-4)GlcNAc(b1-4)GlcNAc
Method in brief: as §1

[15] = target: Fuc(a1-2)[GalNAc(a1-3)]Gal(b1-4)GlcNAc(b1-2)Man(a1-3)[Fuc(a1-2)[GalNAc(a1-3)]Gal(b1-4)GlcNAc(b1-2)Man(a1-6)]Man(b1-4)GlcNAc(b1-4)[Fuc(a1-6)]GlcNAc
Method in brief: as §1

[16] = target: Fuc(a1-2)[GalNAc(a1-3)]Gal(b1-4)GlcNAc(b1-3)Gal(b1-4)GlcNAc
Method in brief: as §1

[17] = target: Fuc(a1-2)[GalNAc(a1-3)]Gal(b1-4)GlcNAc(b1-3)Gal(b1-4)GlcNAc(b1-3)Gal(b1-4)GlcNAc
Method in brief: as §1

[18] = target: Fuc(a1-2)[GalNAc(a1-3)]Gal(b1-4)GlcNAc(b1-3)GalNAc
Method in brief: as §1

[19] = target: Fuc(a1-2)[GalNAc(a1-3)]Gal(b1-4)GlcNAc(b1-3)[Fuc(a1-2)[GalNAc(a1-3)]Gal(b1-4)GlcNAc(b1-6)]GalNAc
Method in brief: as §1

[20] = target: Fuc(a1-2)[GalNAc(a1-3)]Gal(b1-4)GlcNAc(b1-6)GalNAc
Method in brief: as §1

[21] = target: Fuc(a1-2)[GalNAc(a1-3)]Gal(b1-4)[Fuc(a1-3)]GlcNAc
Method in brief: as §1

[22] = target: Fuc(a1-2)[GalNAc(a1-3)]Gal(b1-4)[Fuc(a1-3)]GlcNAc(b1-3)GalNAc
Method in brief: as §1

[23] = target: Fuc(a1-2)[GalNAc(a1-4)]Gal(b1-4)GlcNAc
Method in brief: as §1

[24] = target: Fuc(a1-2)[GalNAc(b1-3)]Gal
Method in brief: as §1

Fuc(a1-3)GlcNAc = target: Fuc(a1-3)GlcNAc
Method in brief: as §1

[25] = target: Fuc(a1-3)[Gal(b1-4)]Glc6S
Method in brief: as §1

[26] = target: Fuc(a1-3)[Gal(b1-4)]GlcNAc
Method in brief: as §1

[27] = target: Fuc(a1-3)[Gal(b1-4)]GlcNAc(b1-2)Man
Method in brief: as §1

[28] = target: Fuc(a1-3)[Gal(b1-4)]GlcNAc(b1-2)Man(a1-3)[Fuc(a1-3)[Gal(b1-4)]GlcNAc(b1-2)Man(a1-6)]Man(b1-4)GlcNAc(b1-4)GlcNAc
Method in brief: as §1

[29] = target: Fuc(a1-3)[Gal(b1-4)]GlcNAc(b1-2)Man(a1-3)[Fuc(a1-3)[Gal(b1-4)]GlcNAc(b1-2)Man(a1-6)]Man(b1-4)GlcNAc(b1-4)[Fuc(a1-6)]GlcNAc
Method in brief: as §1

[30] = target: Fuc(a1-3)[Gal(b1-4)]GlcNAc(b1-3)Gal(b1-3)[Fuc(a1-4)]GlcNAc
Method in brief: as §1

[31] = target: Fuc(a1-3)[Gal(b1-4)]GlcNAc(b1-3)Gal(b1-4)[Fuc(a1-3)]GlcNAc
Method in brief: as §1

[32] = target: Fuc(a1-3)[Gal(b1-4)]GlcNAc(b1-3)Gal(b1-4)[Fuc(a1-3)]GlcNAc(b1-3)Gal(b1-4)[Fuc(a1-3)]GlcNAc
Method in brief: as §1

[33] = target: Fuc(a1-3)[Gal(b1-4)]GlcNAc(b1-3)GalNAc
Method in brief: as §1

[34] = target: Fuc(a1-3)[Gal(b1-4)]GlcNAc(b1-6)GalNAc
Method in brief: as §1

[35] = target: Fuc(a1-3)[Gal(b1-4)]GlcNAc(b1-6)[Gal(b1-3)GlcNAc(b1-3)]Gal(b1-4)Glc
Method in brief: as §1

[36] = target: Fuc(a1-3)[Gal(b1-4)]GlcNAc6S
Method in brief: as §1

[37] = target: Fuc(a1-3)[Gal3S(b1-4)]Glc
Method in brief: as §1

B1: Gal 8 (Mus musculus), Q9JL15 (protein)
chain: MGGSHHHHHHGMASMLSLNNLQNIIYNPIIPYVGTITEQLKPGSLIVIRGHVPKDSERFQVDFQLGNSLKPRADVAFHFNPHFKRSSCIVCNTLTQEKWGWEEITYDMPFRKEKSFEIVFMVLKNKFQVAVNGRHVLLYAHRISPEQIDTVGIYGKVNIHSIGFRFSSASALPHTLGDLQSMETSALGLTQINRENIQKPGKLQLSLPFEARLNASMGPGRTVVIKGEVNTNARSFNVDLVAGKTRDIALHLNPHLNVKAFVRNSFLQDAWGEEERNITCFPFSSGMYFEMIIYCDVREFKVAINGVHSLEYKHRFKDLSSIDTLSVDGDIRLLDVRSW
glycan array binding signal (z-score) [1]: -0.24 | glycan array binding signal (z-score) [2]: -0.239 | glycan array binding signal (z-score) [3]: -0.248 | glycan array binding signal (z-score) [4]: -0.213 | glycan array binding signal (z-score) [5]: -0.253 | glycan array binding signal (z-score) [6]: 0.707 | glycan array binding signal (z-score) [7]: 7.3 | glycan array binding signal (z-score) [8]: -0.149 | glycan array binding signal (z-score) [9]: -0.205 | glycan array binding signal (z-score) [10]: 2.34 | glycan array binding signal (z-score) [11]: -0.185 | glycan array binding signal (z-score) [12]: -0.184 | glycan array binding signal (z-score) [13]: -0.056 | glycan array binding signal (z-score) [14]: 6.58 | glycan array binding signal (z-score) [15]: -0.158 | glycan array binding signal (z-score) [16]: -0.08 | glycan array binding signal (z-score) [17]: 0.31 | glycan array binding signal (z-score) [18]: -0.198 | glycan array binding signal (z-score) [19]: 0.117 | glycan array binding signal (z-score) [20]: -0.255 | glycan array binding signal (z-score) [21]: -0.236 | glycan array binding signal (z-score) [22]: -0.217 | glycan array binding signal (z-score) [23]: -0.283 | glycan array binding signal (z-score) [24]: -0.313 | glycan array binding signal (z-score) (Fuc(a1-3)GlcNAc): -0.108 | glycan array binding signal (z-score) [25]: -0.137 | glycan array binding signal (z-score) [26]: -0.212 | glycan array binding signal (z-score) [27]: -0.217 | glycan array binding signal (z-score) [28]: -0.251 | glycan array binding signal (z-score) [29]: -0.218 | glycan array binding signal (z-score) [30]: -0.269 | glycan array binding signal (z-score) [31]: -0.241 | glycan array binding signal (z-score) [32]: -0.28 | glycan array binding signal (z-score) [33]: -0.053 | glycan array binding signal (z-score) [34]: -0.212 | glycan array binding signal (z-score) [35]: -0.255 | glycan array binding signal (z-score) [36]: -0.248 | glycan array binding signal (z-score) [37]: -0.192
